Data published in paper PMC12040169 (PLOS Biology, 2025).
The other results are listed elsewhere or left out.

What follows are compounds tested on T1, C. trachomatis L2/434/Bu expressing GFP (CTL2-GFP). Settings: total inclusion area; 28.5 h, 10 µM; inhibitor.
T1 construct: L2/434/Bu GFP intracellular growth in HeLa cells
Design: species or system HeLa; C. trachomatis total inclusion area by high-content imaging, normalised to DMSO
Summary of the method: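 Imaging read-out: GFP inclusions and Hoechst nuclei captured by high-content imaging after fixation. Inclusion area/number = chlamydial growth; nuclei count = host cell viability. MIC calculated per earlier method.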

Row | SMILES | % of control remaining
1 | CC1CN(CCOc2ccccc2C=O)CC(C)O1 (stereo not shown) [CBK269687C] | 87.84
2 | O=C(CCNS(=O)(=O)c1ccc(Cl)cc1)N1CCN(Cc2ccccc2)CC1 [CBK269405] | 76.2203
3 | Cc1cc(C)n(Cc2cc(C(=O)NCC(C)Oc3cccnc3)n[nH]2)n1 (stereo not shown) [CBK307609] | 64.7878
4 | Cc1n[nH]c(C)c1CNC(=O)CCc1ccc(Cl)cc1 [CBK283185] | 101.024
5 | O=C(O)c1cccnc1SC1CC(=O)N(c2ccc([N+](=O)[O-])cc2)C1=O (stereo not shown) [CBK263079] | 94.8664
6 | Fc1ccc(CNc2c(-c3ccco3)nc3cnccn23)cc1 [CBK283694] | 127.003
7 | O=C(O)[C@@H]1CCCN1C(=O)CCn1nnc2ccccc2c1=O [CBK286765] | 87.9534
8 | Cn1nnnc1SCC(=O)Nc1cc(F)ccc1F [CBK057872] | 98.514
9 | CCCC(=O)c1ccc(S(=O)(=O)N2CCN(Cc3c[nH]nc3-c3cccs3)CC2)cc1 [CBK063160] | 85.0496
10 | CCCCC(C(=O)O)N1C(=O)c2ccccc2C1=O (stereo not shown) [CBK287153] | 94.0534
11 | CC(C)(C)c1nc(NS(=O)(=O)c2ccc(Cl)cc2)sc1Br [CBK014258] | 91.7368
12 | Cc1cc(NC(=O)c2ccc(N3C(=O)CCC3=O)cc2)nc2c1c(=O)oc1ccccc12 [CBK291205] | 133.808
13 | Cc1nc2c(cc(OCC(O)COc3ccc(C#N)cc3)c3ccsc32)s1 (stereo not shown) [CBK296632] | 89.4481
14 | c1ccc2c(CCN3CCC(Oc4cncc(OCCN5CCOCC5)n4)C3)c[nH]c2c1 (stereo not shown) [CBK084500] | 78.2949
15 | O=S(=O)(NCCn1cccc1)c1ccc2ccccc2c1 [CBK270211] | 91.3597
16 | COc1ccc(CC(=O)N2CCCCC2c2ccc(Cc3cccc(F)c3)nc2)cc1 (stereo not shown) [CBK286493] | 90.8791
17 | CCn1cc(CN(CC(C)C)C(=O)c2ccccc2C#N)cn1 [CBK306729] | 106.212
18 | CC(C)(C)OC(=O)N(CCCN1CCN(c2ccc(F)cc2)CC1)c1ccccc1 [CBK016723] | 42.6096
19 | O=C1CSC2(C(=O)Nc3ccccc32)N1c1cccc(F)c1 (stereo not shown) [CBK093488] | 76.6656
20 | O=C(N/N=C/c1cc(O)c(Br)cc1Br)c1ccncc1 [CBK262297] | 99.1835
21 | COc1ccc2[nH]c3c(c2c1)CCOC31CCN(C(=O)N[C@@H](C)c2ccccc2)CC1 [CBK047114] | 105.752
22 | CC(O)CNCc1ccc(OCC(=O)NC(C)(C)C)cc1 (stereo not shown) [CBK270232C] | 100.08
23 | CN(C)c1ncc(-c2cccc(Cl)c2)c(C2CCCN2C(=O)CC2CCCC2)n1 (stereo not shown) [CBK286253] | 46.8338
24 | COc1ccc(CC(=O)N2CCC(c3cc4ccccc4cn3)C2)cc1 (stereo not shown) [CBK283421] | 87.2029
25 | CCCc1cc(=O)[nH]c(SCc2noc(-c3snnc3C)n2)n1 [CBK006474] | 127.516
26 | CCN1C(=O)c2ccccc2C(=O)[C@@]2(C)CN(CC(C)C)C[C@@H]12 [CBK283479] | 78.8836

Row | SMILES | % of control remaining
27 | CCOC(=O)Cc1nnc(-c2ccc(Cl)cc2)[nH]1 [CBK021882] | 98.4012
28 | O=C(NCCc1ccncc1)c1cccs1 [CBK056969] | 76.5584
29 | Cc1cc(C(=O)N2CCN(Cc3ccc4c(c3)OCO4)CC2)nn1C [CBK074832] | 101.565
30 | O=C(Nc1cccnc1)N1CCN(c2ccc(F)cc2)CC1 [CBK156427] | 91.0025
31 | Cc1ccc2nc(-c3ccc(-c4ccc(C(C)C)cc4)o3)cc(C(=O)O)c2c1 [CBK300083] | 43.5462
32 | COc1ccccc1CN(C)S(=O)(=O)c1ccc(S(N)(=O)=O)cc1 [CBK306008] | 90.7289
33 | O=C1CCC(=O)N1CCOc1nccnc1N1CCN(Cc2ccc(Cl)c(Cl)c2)CC1 [CBK084287] | 93.0852
34 | Cc1nccn1Cc1ccccc1C(=O)NCCn1ccnc1 [CBK281580] | 89.0883
35 | O=C(O)c1csc(-c2ccc(Cl)cc2Cl)n1 [CBK067777] | 102.338
36 | Cc1cc2c(o1)c1cnn(CC(=O)N3CCCCC3)c(=O)c1n2C [CBK284217] | 71.4048
37 | CC(=O)N1CCCN(C(=O)c2ncoc2-c2ccc(F)cc2)CC1 [CBK282398] | 95.5948
38 | Cc1ccc(C(O)CN(C)Cc2c(C)nn(C)c2C)c(C)c1 (stereo not shown) [CBK282939] | 101.246
39 | Cc1coc(C)c1C(=O)CC1(O)C(=O)N(CCc2ccccc2)c2ccccc21 (stereo not shown) [CBK293975] | 92.0532
40 | CCc1ccc(/C=N/N2CCN(Cc3cccc4ccccc34)CC2)cc1 [CBK262986] | 91.4293
41 | Cc1cnc2c(Cl)c(C(=O)NCC(F)(F)F)nn2c1 [CBK307391] | 45.894
42 | OC1(Cn2ccc3ncccc32)CCN(Cc2ccccc2F)CC1 [CBK284752] | 75.7231
43 | Cc1cc(Cl)c(S(=O)(=O)Nc2ccc(Oc3ccccc3)cc2)cc1OCC(N)=O [CBK266583] | 117.641
44 | CCn1c(SCC(=O)Nc2ccc(OC)c(Cl)c2)nnc1-c1ccccc1O [CBK268021] | 89.8395
45 | COc1ccc2cc(/C=C(\C#N)c3nc(-c4cc5c(ccc6ccccc65)oc4=O)cs3)c(Cl)nc2c1 [CBK261636] | 115.069
46 | CC1(C)CC(=O)c2sc(NC(=O)Nc3ccccc3)nc2C1 [CBK287319] | 93.801
47 | N#CCNS(=O)(=O)c1ccc(OC(F)(F)F)cc1 [CBK044841] | 83.8722
48 | O=C(Nc1ccc(Cc2ccc(NC(=O)c3ccc(Br)cc3)c(O)c2)cc1O)c1ccc(Br)cc1 [CBK262086] | 105.097
49 | COc1ccc(C(=O)O)cc1S(=O)(=O)N1CCCCCC1 [CBK261742] | 113.909
50 | Cc1ccc(CN(CCCN(C)C)Cc2nccn2C)o1 [CBK282481] | 100.127
51 | O=C(CSc1ccccc1)Nc1cc(Cl)ccc1O [CBK265837] | 130.416
52 | COc1ccc(S(=O)(=O)NCCCn2ccnc2)cc1Cl [CBK269997] | 97.9269
